Data taken from PMC5983756 (2018).

Biological target: T1, purified D1 domain of FGFR1 fused to GST (GST-FGFR1.D1 25-124) (Homo sapiens (Human), UniProt P11362)
T1 chain: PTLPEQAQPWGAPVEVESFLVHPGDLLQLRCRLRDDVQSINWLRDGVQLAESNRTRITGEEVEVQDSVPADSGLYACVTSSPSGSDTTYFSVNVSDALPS
Assay: SPR

B1: Recombinant FGF1 (Met-Ala-FGF1 […]) (protein)
chain: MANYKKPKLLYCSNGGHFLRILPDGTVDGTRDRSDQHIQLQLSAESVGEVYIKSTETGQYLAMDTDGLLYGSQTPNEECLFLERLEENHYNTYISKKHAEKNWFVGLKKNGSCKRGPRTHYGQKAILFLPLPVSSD
binding result: no binding
